From patent US20210269548A1 (Kyowa Kirin, published 2021) come the findings set out here.

The chains are these.
T1: mouse CSPG5 (mouse, UniProt Q71M36 31-566)
T1 construct: Full-length gene expressed on Expi293F cells; also called mouse CSPG5/Expi293F cells
T1 sequence: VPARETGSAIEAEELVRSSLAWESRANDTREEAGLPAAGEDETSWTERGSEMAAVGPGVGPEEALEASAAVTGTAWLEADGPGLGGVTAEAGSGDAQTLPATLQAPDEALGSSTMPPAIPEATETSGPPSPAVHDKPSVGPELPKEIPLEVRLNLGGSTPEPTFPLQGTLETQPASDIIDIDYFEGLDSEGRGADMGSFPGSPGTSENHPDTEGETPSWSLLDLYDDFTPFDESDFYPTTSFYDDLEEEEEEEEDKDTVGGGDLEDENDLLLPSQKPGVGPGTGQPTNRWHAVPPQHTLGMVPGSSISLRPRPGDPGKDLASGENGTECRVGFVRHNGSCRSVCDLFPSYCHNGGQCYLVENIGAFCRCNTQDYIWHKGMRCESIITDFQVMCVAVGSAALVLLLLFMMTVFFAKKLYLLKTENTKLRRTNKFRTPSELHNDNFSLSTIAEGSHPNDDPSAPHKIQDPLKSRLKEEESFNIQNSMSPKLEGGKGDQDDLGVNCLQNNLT

T2: monkey CSPG5 (monkey (rhesus monkey), UniProt O95196 31-566 (human entry))
T2 construct: Full-length gene expressed on Expi293F cells; also called monkey CSPG5/Expi293F cells; rhesus monkey CSPG5
T2 chain: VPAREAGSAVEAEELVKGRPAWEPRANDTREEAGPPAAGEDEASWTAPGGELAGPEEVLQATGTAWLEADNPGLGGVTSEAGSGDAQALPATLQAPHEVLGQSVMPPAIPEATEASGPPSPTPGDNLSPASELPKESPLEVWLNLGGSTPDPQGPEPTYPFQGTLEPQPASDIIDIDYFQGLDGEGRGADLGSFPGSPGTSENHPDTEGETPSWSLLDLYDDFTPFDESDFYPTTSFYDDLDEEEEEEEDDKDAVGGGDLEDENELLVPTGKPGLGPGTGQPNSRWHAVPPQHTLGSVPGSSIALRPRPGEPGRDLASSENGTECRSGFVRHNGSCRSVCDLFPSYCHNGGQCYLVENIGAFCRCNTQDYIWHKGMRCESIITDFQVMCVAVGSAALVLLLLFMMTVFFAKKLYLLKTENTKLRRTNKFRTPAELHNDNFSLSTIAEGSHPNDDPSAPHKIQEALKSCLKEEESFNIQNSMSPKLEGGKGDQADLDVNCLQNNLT

T3: human CSPG5 (human, UniProt O95196 31-566)
T3 construct: Full-length gene expressed on cell membrane (Expi293F, L929); also called human CSPG5/Expi293F cells; human CSPG5/L929#09
T3 sequence: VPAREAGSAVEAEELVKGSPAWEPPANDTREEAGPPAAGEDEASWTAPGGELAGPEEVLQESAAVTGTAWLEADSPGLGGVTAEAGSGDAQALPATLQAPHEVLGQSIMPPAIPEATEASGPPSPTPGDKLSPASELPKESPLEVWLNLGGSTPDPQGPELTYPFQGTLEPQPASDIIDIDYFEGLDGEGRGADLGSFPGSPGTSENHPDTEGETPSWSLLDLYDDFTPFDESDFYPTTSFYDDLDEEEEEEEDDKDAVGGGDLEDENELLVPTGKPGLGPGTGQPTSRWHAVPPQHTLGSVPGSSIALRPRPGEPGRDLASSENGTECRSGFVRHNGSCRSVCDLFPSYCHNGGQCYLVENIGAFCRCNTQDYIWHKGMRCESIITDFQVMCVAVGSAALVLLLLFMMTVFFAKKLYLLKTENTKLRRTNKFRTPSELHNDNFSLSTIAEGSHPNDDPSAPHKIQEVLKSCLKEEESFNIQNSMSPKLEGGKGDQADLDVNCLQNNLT

B1: CSPG5219 scFv-hG4PE(R409K) (Fc fusion)
VH: [omitted - about 100 residues]MNSWRAFDYWGQGTLVTVSS
VL: EIVLTQSPGTLSLSPGERATLSCRASQSVSSSYLAWYQQKPGQAPRLLIYGASSRATGIPDRFSGSGSGTDFTLTISRLEPEDFAVYYCQQLRRKGSTFGQGSKVEIK
notes: also called anti-CSPG5 scFv-Fc antibody
B2: CSPG5201 scFv-hG4PE(R409K) (Fc fusion)
VH: [omitted - about 100 residues]KWNLFDYWGQGTLVTVSS
VL: QSALTQPASVSGSPGQSITISCTGTSTDVNGYNYVSWYQQYAGKAPKLIIFDVSKRPSGVSNRFSGSKSGDTASLTISGLQAEDEADYHCSSYRRLRLPVLFGGGTKLTVL
notes: as for B1
B3: CSPG5206 scFv-hG4PE(R409K) (Fc fusion)
VH: [omitted - about 100 residues]KRSLAFDYWGQGTLVTVSS
VL: B2 VL with R94N, L96K, L98P
notes: as for B1
B4: CSPG5207 scFv-hG4PE(R409K) (Fc fusion)
VH: [omitted - about 100 residues]WARTSPFDYWGQGTLVTVSS
VL: B2 VL with R94T, R95P, L96S, L98A, P99R
notes: as for B1
B5: CSPG5214 scFv-hG4PE(R409K) (Fc fusion)
VH: [omitted - about 100 residues]TRRTTMFDYWGQGTLVTVSS
VL: B2 VL with R94N, R95P, L96H, R97H, L98S, P99G
notes: as for B1
B6: CSPG5230 scFv-hG4PE(R409K) (Fc fusion)
VH: [omitted - about 100 residues]STPARFDYWGQGTLVTVSS
VL: B2 VL with R94H, R95T, L96R, R97P, L98A, P99T
notes: as for B1
B7: CSPG5234 scFv-hG4PE(R409K) (Fc fusion)
VH: [omitted - about 100 residues]RHSYAPFDYWGQGTLVTVSS
VL: B2 VL with R95P, L96K, R97A, L98R, P99S
notes: as for B1

Where a chain is given by its changes, count along the chain named. Names and notes keep the numbering of the source. Some results are limits rather than exact numbers.

One assay concerns the target T1, mouse CSPG5. Kind of assay: FACS, 10 µg/mL antibody, mouse CSPG5/Expi293F vs Expi293F. The method, then: (§1) Expi293F cells, human CSPG5/Expi293F cells, mouse CSPG5/Expi293F cells, and monkey CSPG5/Expi293F cells were separately suspended in Staining Buffer (SB) of PBS comprising 0.1% NaN₃ and 1% FBS and dispensed in a round-bottom 96-well plate (manufactured by Becton, Dickinson and Company). After centrifugation (2000 rpm, 4° C., 2 minutes), the supernatant was removed, and to the resulting pellet, 10 μg/mL of each antibody obtained in Example 2 was added to suspend the pellet, and the resulting suspension was left to stand for 30 minutes at ice temperature. After further centrifugation (2000 rpm, 4° C., 2 minutes), the supernatant was removed, and the resulting pellet was washed with SB, and thereafter, 1 μg/mL of an RPE fluorescently labeled goat anti-human antibody (manufactured by Southern Biotech, Inc.) was added thereto, and the resultant was incubated for 30 minutes at ice temperature. After washing with SB, the cells were suspended in SB, and the fluorescence intensity of each cell was measured using a flow cytometer FACS CANTO II (manufactured by Becton, Dickinson and Company). Note that as a negative control, 10 μg/mL of the anti-AVM antibody was used.
(§2) The detection results were analyzed, and a mean fluorescence intensity (MFI) was calculated using a geometric mean. Further, with respect to the MFI when the concentration of each antibody was 10 μg/mL, the ratio of the MFI (mean fluorescence intensity ratio) between the human CSPG5/Expi293F cells and the Expi293F cells (parent cell line) was calculated. Also for the monkey CSPG5/Expi293F cells and the mouse CSPG5/Expi293F cells, the mean fluorescence intensity ratio relative to the Expi293F cells (parent cell line) was calculated by the same procedure, and the results are shown in Table 3.
B1: the “Mean fluorescence intensity ratio” value is 4.87 ratio to parent cell line.

Regarding B2, the “Mean fluorescence intensity ratio” value was 2.95 ratio to parent cell line.

As to B3, the “Mean fluorescence intensity ratio” value was 4.5 ratio to parent cell line.

Turning to B4, the “Mean fluorescence intensity ratio” value is 4.19 ratio to parent cell line.

As for B5, the “Mean fluorescence intensity ratio” value was 2.28 ratio to parent cell line.

For the molecule B6, the “Mean fluorescence intensity ratio” value is 3.56 ratio to parent cell line.

As for B7, the “Mean fluorescence intensity ratio” value was 14.3 ratio to parent cell line.

A further assay deals with T2, monkey CSPG5. Kind of assay: FACS, 10 µg/mL antibody, monkey CSPG5/Expi293F vs Expi293F. The method, then: as §1, §2
Background: Flow cytometry measures light scatter and fluorescence of single cells or particles in a stream.
As for B1, the “Mean fluorescence intensity ratio” value was 5.74 ratio to parent cell line.

B2: the “Mean fluorescence intensity ratio” value was 1.73 ratio to parent cell line.

With B3, the “Mean fluorescence intensity ratio” value was 3.4 ratio to parent cell line.

In the case of B4, the “Mean fluorescence intensity ratio” value is 3.87 ratio to parent cell line.

As for B5, the “Mean fluorescence intensity ratio” value was 4.03 ratio to parent cell line.

In the case of B6, the “Mean fluorescence intensity ratio” value was 4.45 ratio to parent cell line.

For B7, the “Mean fluorescence intensity ratio” value is 10.4 ratio to parent cell line.

Another assay deals with T3, human CSPG5. Description: FACS, 10 µg/mL antibody, human CSPG5/Expi293F vs Expi293F. The method, then: as §1, §2
For B1, the “Mean fluorescence intensity ratio” value is 4.75 ratio to parent cell line.

Consider B2, for which the “Mean fluorescence intensity ratio” value is 2.41 ratio to parent cell line.

As to B3, the “Mean fluorescence intensity ratio” value was 4.31 ratio to parent cell line.

As for B4, the “Mean fluorescence intensity ratio” value is 4.23 ratio to parent cell line.

Regarding B5, the “Mean fluorescence intensity ratio” value was 2.15 ratio to parent cell line.

In the case of B6, the “Mean fluorescence intensity ratio” value was 3.35 ratio to parent cell line.

As for B7, the “Mean fluorescence intensity ratio” value was 14.1 ratio to parent cell line.

The next assay deals with mouse CSPG5-GST (mouse). Description: SPR Biacore T-100, antibody captured, mouse CSPG5-GST analyte. The method, then: The affinity of the anti-CSPG5 antibodies, the CSPG5202 IgG4PE(R409K), and the AVM IgG4PE(R409K) CSPG5202 dscFv produced in Example 2 for human CSPG5 and mouse CSPG5 was measured using Biacore T-100 (GE Healthcare).
Each of the antibodies was immobilized on a […] sensor chip using a Human antibody Capture kit, and the binding ability was evaluated using human CSPG5-GST and mouse CSPG5-GST produced in Example 4 as analytes. The obtained sensorgram was analyzed with BIA evaluation software, and the dissociation constant (KD value) was calculated.
(Surface plasmon resonance follows binding to a sensor surface in real time, without labels.)
Molecule B1 displayed a Kd of no more than 10 nM.

In turn, B2 displayed a Kd of no more than 10 nM.

B3 yielded a Kd of no more than 10 nM.

B4: the Kd is no more than 10 nM.

As for B5, the Kd is no more than 10 nM.

Turning to B6, the Kd was no more than 10 nM.

As for B7, the Kd was no more than 10 nM.

The Kd is the free concentration of one partner at which half of the binding sites on the other are occupied at equilibrium, for simple one-to-one binding.
